# Results from the supplement of paper PMC4604168 (melanoma cell lines).
# The list shows a part of the results. Single values are uncertain, as repeats are few or missing.
# Experiments:
# Assay in all cases: cell count relative to DMSO control; melanoma cells; higher = more viable cells
# Conditions in all cases: library dose: standard library concentration; 72 h
# G361 = system: G361
# IPC-298 = system: IPC-298
# IST-MEL1 = system: IST-MEL1
# LB2518-MEL = system: LB2518-MEL
# LOXIMVI = system: LOXIMVI
# MEL-HO = system: MEL-HO
# MZ2-MEL = system: MZ2-MEL
# MeWo = system: MeWo
# RPMI7951 = system: RPMI7951
# RVH-421 = system: RVH-421
# 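Note: cells treated in 1,536-well plates, then fixed and DAPI-stained, with nuclei counted from automated high-throughput microscope images.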
Compound,cell count (G361) [%],cell count (IPC-298) [%],cell count (IST-MEL1) [%],cell count (LB2518-MEL) [%],cell count (LOXIMVI) [%],cell count (MEL-HO) [%],cell count (MZ2-MEL) [%],cell count (MeWo) [%],cell count (RPMI7951) [%],cell count (RVH-421) [%]
"CS(=O)(=O)c1ccc(C(=O)Nc2ccc(Cl)c(-c3ccccn3)c2)c(Cl)c1 [vismodegib] + Oc1nc(-c2ccc(C(F)(F)F)cc2)nc2c1CSCC2 [XAV939] (first compound 5 µM, partner dose 10 µM)",74.7,85,91,88.7,93.3,83.2,87.1,83.8,86,91.7
"NC1(c2ccc(-c3nc4ccn5c(=O)[nH]nc5c4cc3-c3ccccc3)cc2)CCC1 + COc1ccc(-c2ccc3c(N4CCOCC4)nc(N4C[C@@H](C)O[C@@H](C)C4)nc3n2)cc1CO [KU0063794] (first compound 2 µM, partner dose 0.1 µM)",58.2,75.8,86.1,71.8,56.3,54.9,61,68.1,76.8,66.1
"CS(=O)(=O)c1ccc(C(=O)Nc2ccc(Cl)c(-c3ccccn3)c2)c(Cl)c1 [vismodegib] + Oc1cc(-c2nc(-c3ccccc3)[nH]c2-c2ccncc2)ccc1Cl [L779450] (first compound 5 µM, partner dose 1 µM)",51.1,74.8,104,83.7,154,77.1,96.2,74.8,82.9,98.3
"CS(=O)(=O)c1ccc(C(=O)Nc2ccc(Cl)c(-c3ccccn3)c2)c(Cl)c1 [vismodegib] + CO[C@@H]1[C@H](N(C)C(=O)c2ccccc2)C[C@H]2O[C@]1(C)n1c3ccccc3c3c4c(c5c6ccccc6n2c5c31)C(=O)NC4 [Midostaurin] (first compound 5 µM, partner dose 0.4 µM)",53.9,84.6,106,79.9,83.1,75.3,96.2,73.8,54.3,88.3
"CS(=O)(=O)c1ccc(C(=O)Nc2ccc(Cl)c(-c3ccccn3)c2)c(Cl)c1 [vismodegib] + O=C(Nc1cccc(Cl)c1)Nc1ncc(CCNc2ncnc3ccsc23)s1 [SNS314] (first compound 5 µM, partner dose 0.004 µM)",82.4,87.2,63.7,92.6,79.5,98.2,93.3,71.9,71.9,9.48
"NC1(c2ccc(-c3nc4ccn5c(=O)[nH]nc5c4cc3-c3ccccc3)cc2)CCC1 + NC(=O)Nc1cc(-c2cccc(F)c2)sc1C(=O)N[C@H]1CCCNC1 [AZD7762] (first compound 2 µM, partner dose 0.1 µM)",69.4,84.3,373,63.4,63,65.9,102,76.3,48,483
"C=C(c1ccc(C(=O)O)cc1)c1cc2c(cc1C)C(C)(C)CCC2(C)C [Bexarotene] + Cn1cc(/C=C2\C(=O)Nc3cccnc32)c2ccccc21 [GW441756] (first compound 10 µM, partner dose 2 µM)",66.3,65.6,79.7,114,102,84.2,61.4,81.5,66.7,83.6
"NC1(c2ccc(-c3nc4ccn5c(=O)[nH]nc5c4cc3-c3ccccc3)cc2)CCC1 + Cn1nnc2c(C(N)=O)ncn2c1=O [temozolomide] (first compound 2 µM, partner dose 10 µM)",121,85.2,86.9,84.1,65.8,84.8,117,77,72.6,124
"CCCS(=O)(=O)Nc1ccc(F)c(C(=O)c2c[nH]c3ncc(Cl)cc23)c1F + C=CCNC1=C2C[C@@H](C)C[C@H](OC)[C@H](O)[C@@H](C)/C=C(\C)[C@H](OC(N)=O)[C@@H](OC)/C=C\C=C(/C)C(=O)NC(=CC1=O)C2=O [Tanespimycin] (first compound 0.4 µM, partner dose 0.01 µM)",64.4,63.4,32.6,94.9,93.9,77.6,86.4,94.5,34.7,76
"CS(=O)(=O)c1ccc(C(=O)Nc2ccc(Cl)c(-c3ccccn3)c2)c(Cl)c1 [vismodegib] + Cc1cc(Nc2cc(N3CCN(C)CC3)nc(/C=C/c3ccccc3)n2)n[nH]1 [ENMD2076] (first compound 5 µM, partner dose 0.2 µM)",90.5,89,103,81.8,93.3,98.2,102,74.7,67,84.5
"NC1(c2ccc(-c3nc4ccn5c(=O)[nH]nc5c4cc3-c3ccccc3)cc2)CCC1 + O=C(Nc1ccccc1)c1cc([N+](=O)[O-])ccc1Cl [GW9662] (first compound 2 µM, partner dose 10 µM)",74.1,87.2,87.1,77.7,86.3,69,74.8,69.3,74.8,74.5
"CS(=O)(=O)c1ccc(C(=O)Nc2ccc(Cl)c(-c3ccccn3)c2)c(Cl)c1 [vismodegib] + CS(=O)(=O)CCNCc1ccc(-c2ccc3ncnc(Nc4ccc(OCc5cccc(F)c5)c(Cl)c4)c3c2)o1 [lapatinib] (first compound 5 µM, partner dose 4 µM)",41.6,70.5,92.6,104,93.5,59.3,55.6,75.7,67.2,80.8
"C=C(c1ccc(C(=O)O)cc1)c1cc2c(cc1C)C(C)(C)CCC2(C)C [Bexarotene] + O=c1cc(-c2cccc3c2Sc2ccccc2S3)oc(N2CCOCC2)c1 [KU55933] (first compound 10 µM, partner dose 5 µM)",79.7,92.3,109,120,126,89.5,110,98.2,88.9,137
"NC1(c2ccc(-c3nc4ccn5c(=O)[nH]nc5c4cc3-c3ccccc3)cc2)CCC1 + Cc1nc(Nc2ncc(C(=O)Nc3c(C)cccc3Cl)s2)cc(N2CCN(CCO)CC2)n1 [dasatanib] (first compound 2 µM, partner dose 0.02 µM)",69.9,73.9,57.7,72,18.7,65.2,48.1,63,44.6,68
"CN(c1ncccc1CNc1nc(Nc2ccc3c(c2)CC(=O)N3)ncc1C(F)(F)F)S(C)(=O)=O + CCCCCCCCCCCC1=C(O)C(=O)C=C(O)C1=O [Embelin] (first compound 0.4 µM, partner dose 6 µM)",71.1,64.9,66.1,62.2,83.8,66.3,77,89.1,67.4,73.3
"CS(=O)(=O)c1ccc(C(=O)Nc2ccc(Cl)c(-c3ccccn3)c2)c(Cl)c1 [vismodegib] + COc1cc2ncnc(Nc3ccc(Oc4ccccc4)cc3)c2cc1OC [SrcI1] (first compound 5 µM, partner dose 10 µM)",66.4,73.2,90.5,132,78.9,85.6,59.8,72.4,60.4,122
"CN(c1ncccc1CNc1nc(Nc2ccc3c(c2)CC(=O)N3)ncc1C(F)(F)F)S(C)(=O)=O + Oc1nc(-c2ccc(C(F)(F)F)cc2)nc2c1CSCC2 [XAV939] (first compound 0.4 µM, partner dose 10 µM)",77.4,101,103,84.8,88.6,81,98.5,92,64.3,104
"CS(=O)(=O)c1ccc(C(=O)Nc2ccc(Cl)c(-c3ccccn3)c2)c(Cl)c1 [vismodegib] + COc1cc(N2CCC(N3CCN(C)CC3)CC2)ccc1Nc1ncc(Cl)c(Nc2ccccc2S(=O)(=O)C(C)C)n1 [NVP-TAE684] (first compound 5 µM, partner dose 0.4 µM)",93.4,103,104,108,213,93.1,116,62.4,104,111
"CS(=O)(=O)c1ccc(C(=O)Nc2ccc(Cl)c(-c3ccccn3)c2)c(Cl)c1 [vismodegib] + O=C1NC(=O)/C(=C/c2ccc(-c3ccc(F)cc3O)o2)S1 [AS252424] (first compound 5 µM, partner dose 5 µM)",93.2,93.9,101,113,88.2,78.1,94.2,95.4,80,120
"CN(c1ncccc1CNc1nc(Nc2ccc3c(c2)CC(=O)N3)ncc1C(F)(F)F)S(C)(=O)=O + C[C@@H](Oc1cc(-c2cnn(C3CCNCC3)c2)cnc1N)c1c(Cl)ccc(F)c1Cl [Crizotinib] (first compound 0.4 µM, partner dose 1 µM)",104,98.5,90.8,71.5,123,89.6,82.4,101,80.1,79.7
"CCCS(=O)(=O)Nc1ccc(F)c(C(=O)c2c[nH]c3ncc(Cl)cc23)c1F + CO[C@@H]1[C@H](N(C)C(=O)c2ccccc2)C[C@H]2O[C@]1(C)n1c3ccccc3c3c4c(c5c6ccccc6n2c5c31)C(=O)NC4 [Midostaurin] (first compound 0.4 µM, partner dose 0.4 µM)",62.8,66,73,59.5,47.8,74.9,56.8,84.6,54,78.6
"CS(=O)(=O)c1ccc(C(=O)Nc2ccc(Cl)c(-c3ccccn3)c2)c(Cl)c1 [vismodegib] + Clc1ccc(Nc2nnc(Cc3ccncc3)c3ccccc23)cc1 [vatalanib] (first compound 5 µM, partner dose 10 µM)",83.4,76.3,72.7,68.7,75.2,53.8,76.4,60.2,74.3,73.8
"C=C(c1ccc(C(=O)O)cc1)c1cc2c(cc1C)C(C)(C)CCC2(C)C [Bexarotene] + Clc1ccc(Nc2nnc(Cc3ccncc3)c3ccccc23)cc1 [vatalanib] (first compound 10 µM, partner dose 10 µM)",60.2,53.8,69.8,87.4,78.4,53.4,64.2,66.7,80.4,62.1
